# Some of the results follow.
# B1: PhoQ; a variant is named by its letters at X, in order, P23837 (parent)
# chain: MKKLLRLFFPLSLRVRFLLATAAVVLVLSLAYGMVALIGYSVSFDKTTFRLLRGESNLFYTLAKWENNKLHVELPENIDKQSPTMTLIYDENGQLLWAQRDVPWLMKMIQPDWLKSNGFHEIEADVNDTSLLLSGDHSIQQQLQEVREDDDDAEMTHSVAVNVYPATSRMPKLTIVVVDTIPVELKSSYMVWSWFIYVLSANLLLVIPLLWVAAWWSLRPIEALAKEVRELEEHNRELLNPATTRELTSLVRNLNRLLKSERERYDKYRTTLTDLTHSLKTPLXXLQXXLRSLRSEKMSVSDAEPVMLEQISRISQQIGYYLHRASMRGGTLLSRELHPVAPLLDNLTSALNKVYQRKGVNISLDISPEISFVGEQNDFVEVMGNVLDNACKYCLEFVEISARQTDEHLYIVVEDDGPGIPLSKREVIFDRGQRVDTLRPGQGVGLAVAREITEQYEGKIVAGESMLGGARMEVIFGRQHSAPKDE
# Variants of: B1
# Assay: enrichment ratio after two sorts for PhoP signalling (ratio (wild type AVST 3.29)); higher = more functional
# Conditions: with PhoP (E. coli)
row,Variant,enrichment ratio
1,MRWD,≤ 0.25
2,PNWY,≤ 0.25
3,MECK,27.3
4,AKHS,≤ 0.25
5,AMTD,≤ 0.25
6,TSNK,≤ 0.25
7,YTSC,≤ 0.25
8,SWHV,≤ 0.25
9,DKFY,≤ 0.25
10,LPKR,≤ 0.25
11,DKYY,≤ 0.25
12,MLLM,7.62
13,PEDR,≤ 0.25
14,TNKN,≤ 0.25
15,PDGH,≤ 0.25
16,DCIL,≤ 0.25
17,AYVE,≤ 0.25
18,HKMT,≤ 0.25
19,IQGT,≤ 0.25
20,PPDI,≤ 0.25
21,PPCG,≤ 0.25
22,QELN,≤ 0.25
23,ENFM,≤ 0.25
24,RWRA,≤ 0.25
25,NTTH,≤ 0.25
26,NSSD,≤ 0.25

row,Variant,enrichment ratio
1,YGGQ,≤ 0.25
2,DMHM,≤ 0.25
3,AYCD,≤ 0.25
4,KHYN,≤ 0.25
5,ACRY,≤ 0.25
6,FREA,≤ 0.25
7,YVTN,≤ 0.25
8,SPER,≤ 0.25
9,ASSL,11.7
10,AWKC,≤ 0.25
11,WRWK,≤ 0.25
12,QNPS,≤ 0.25
13,PHCP,≤ 0.25
14,RMLA,≤ 0.25
15,IYYV,≤ 0.25
16,WTTP,≤ 0.25
17,AHFC,≤ 0.25
18,QQQP,≤ 0.25
19,PHEG,≤ 0.25
20,NMCD,≤ 0.25
21,RHCI,≤ 0.25
22,KCCR,≤ 0.25
23,YMMV,0.316
24,WPKG,≤ 0.25
25,PRWC,≤ 0.25
26,KTMQ,≤ 0.25

row,Variant,enrichment ratio
1,AMMF,10
2,VKLL,0.684
3,HRSH,≤ 0.25
4,GNHG,≤ 0.25
5,LKKV,≤ 0.25
6,ICFV,≤ 0.25
7,RYLH,≤ 0.25
8,TDME,11.5
9,KRGH,≤ 0.25
10,EMLE,≤ 0.25
11,RSCM,≤ 0.25
12,PKVM,≤ 0.25
13,DAEP,≤ 0.25
14,PHIY,≤ 0.25
15,HGRD,≤ 0.25
16,SPQH,≤ 0.25
17,WQTL,≤ 0.25
18,RLMI,≤ 0.25
19,TVQN,12.1
20,YPIE,≤ 0.25
21,PNWH,≤ 0.25
22,FKAS,≤ 0.25
23,TPNK,≤ 0.25
24,HQRF,≤ 0.25
25,YTWA,≤ 0.25
26,MNQT,≤ 0.25

row,Variant,enrichment ratio
1,KKIT,≤ 0.25
2,GGYH,≤ 0.25
3,TVRW,≤ 0.25
4,DTVC,≤ 0.25
5,DLHM,≤ 0.25
6,IVGW,≤ 0.25
7,YWRI,≤ 0.25
8,DGHS,≤ 0.25
9,GAYN,≤ 0.25
10,LHSY,≤ 0.25
11,IGCN,≤ 0.25
12,DQTM,≤ 0.25
13,LQDM,≤ 0.25
14,GGPY,≤ 0.25
15,SVQV,≤ 0.25
16,PMMM,≤ 0.25
17,YQQR,≤ 0.25
18,IYRK,≤ 0.25
19,TFRA,≤ 0.25
20,FLMI,≤ 0.25
21,RRNF,≤ 0.25
22,ASSF,11.3
23,RFKP,≤ 0.25
24,TVQQ,12.6
25,SPSK,≤ 0.25
26,RYDG,≤ 0.25

row,Variant,enrichment ratio
1,WKMS,≤ 0.25
2,VFHL,≤ 0.25
3,TGQQ,≤ 0.25
4,GQYM,≤ 0.25
5,MPDF,≤ 0.25
6,WSYI,≤ 0.25
7,PDWP,≤ 0.25
8,YMEI,≤ 0.25
9,FNSC,≤ 0.25
10,NYTV,≤ 0.25
11,SWWF,≤ 0.25
12,FQEH,≤ 0.25
13,HIHM,≤ 0.25
14,CTTT,≤ 0.25
15,FWDC,≤ 0.25
16,GMRI,≤ 0.25
17,HKPL,≤ 0.25
18,NGVW,≤ 0.25
19,TYFA,≤ 0.25
20,HYEW,≤ 0.25
21,GDHP,1.16
22,MGMM,37.6
23,PSIC,≤ 0.25
24,YQFY,≤ 0.25
25,LFSE,≤ 0.25
26,HRDH,≤ 0.25

row,Variant,enrichment ratio
1,DAYI,≤ 0.25
2,SDDF,≤ 0.25
3,ATIF,5.34
4,PSFC,≤ 0.25
5,YDVN,≤ 0.25
6,IMQK,≤ 0.25
7,FLSK,≤ 0.25
8,TMGT,11
9,LFWI,≤ 0.25
10,QDDG,≤ 0.25
11,YHYP,≤ 0.25
12,FSFV,≤ 0.25
13,KKHD,≤ 0.25
14,RQYF,≤ 0.25
15,SAGA,≤ 0.25
16,FNWE,≤ 0.25
17,TVTA,19.9
18,KTNQ,≤ 0.25
19,MHYR,≤ 0.25
20,WIKW,≤ 0.25
21,YDTV,≤ 0.25
22,RHQA,≤ 0.25
23,TIQR,16
